# PubChem BioAssay AID1508624 (National Center for Advancing Translational Sciences (NCATS), 2021)
# Hit rate of the full screen: of about 48,000 compounds, about 120 (0.25%) were called active. Not shown: some 4% with an inconclusive outcome. The call rests on the fitted dose curve; in most records, active means well fitted activation curve with a large enough effect; inconclusive means small, poorly fitted or top-dose-only effect, or another doubt; inactive means no such curve, though single readings can be large or run the other way. Some of the results follow.
# Assay: Primary qHTS for Identification of Small Molecule Activators of Huntingtin-Antisense Promoter Activity; further: nearly all actives have a fitted effect of over 55% in size
# Details: HEK293 HTT-AS promoter firefly luciferase reporter, 24 h; series mostly up to 57.5 µM; activity change, positive = activation: at the top concentration
# Summary of the method: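 HEK293 Fluc reporter, 2,500 cells/well, 24 h pre-culture; cpds up to 57.5 uM final, 24 h 37 degrees C; Dual-Glo, 10 min RT; normalized vehicle = 0%, zero RLU = -100%.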
row,SMILES,"activity change, positive = activation"
1,Cc1cccc(NC(=O)c2c(C)cc(C)nc2SCC(=O)Nc2c(C)cc(C)cc2C)c1,inactive: -18%
2,CC(=O)Nc1ccc(NC(=O)c2ccc(COc3ccc(Cl)cc3Cl)o2)cc1,inactive: 6.78%
3,CCOc1ccc(-c2cc(-c3nc(-c4cc(OC)c(OC)c(OC)c4)no3)[nH]n2)cc1Cl,inactive: -3.63%
4,Cc1ccc(-n2nc(CO)c(C(=O)NCc3cccs3)n2)cc1C,inactive: -0.941%
5,Cn1c(=O)oc2cc(S(=O)(=O)N3CCC(C(=O)NCc4ccc(F)cc4)CC3)ccc21,inactive: -16.2%
6,CCOC(=O)C1=C(C)NC(C)=C(C(=O)OC)C1c1cccc(Cl)c1Cl (stereo unspecified),inactive: -17.8%
7,COc1ccc(Nc2nc3cc(Cl)c(Cl)cc3n3cnnc23)cc1Cl,inactive: -2.38%
8,O=C(Nc1nnc(S(=O)(=O)N2CCCC2)s1)c1ccccc1Br,inactive: -13%
9,Cc1ccccc1Cn1nnc2c(=O)[nH]c(C3CCCN(C(=O)c4ccc(F)cc4)C3)nc21 (stereo unspecified),inactive: -14.7%
10,CCOC(=O)c1ccc(NC(=O)CSc2nnc(CNC(=O)c3ccc(OC)cc3)n2CC)cc1,inactive: 0.179%
11,COc1ccc(NC(=O)CC2C(=O)N(c3ccc(C)cc3)C(=O)N2Cc2ccc3c(c2)OCO3)cc1 (stereo unspecified),inactive: -18.8%
12,CCC(C)n1c(SCc2c(F)cccc2Cl)nc2ccsc2c1=O (stereo unspecified),inactive: -28.6%
13,COc1ccc(N2CCN(S(=O)(=O)c3ccc4c(c3)CCCN4C(C)=O)CC2)cc1,inactive: -20.8%
14,CC1CCN(CCCNC(=O)c2cn(C)c3ccc(S(=O)(=O)N(C)C4CCCCC4)cc3c2=O)CC1,inactive: 2.25%
15,COc1cc(N2C(=O)CSC23C(=O)N(Cc2ccc(C)cc2)c2ccccc23)cc(OC)c1OC (stereo unspecified),inactive: -22%
16,Cc1ccc2c(c1)N(C(=O)CCC(=O)NCc1cccs1)CCO2,inactive: 1.51%
17,Cc1ccc(C)c(CN2C(=O)c3ccccc3S(=O)c3ccc(C(=O)N4CCN(c5ccccc5F)CC4)cc32)c1 (stereo unspecified),inactive: -21.2%
18,C=C1C(=O)[C@@]23C(CC[C@@H]1[C@H]2O)[C@@]12CO[C@]3(O)[C@@H](O)[C@@H]1C(C)(C)CC[C@@H]2O (stereo partly specified),inactive: -93.3%
19,CC(C)(C)OC(=O)N1CCC(c2c(C(=O)NCCCN3CCc4ccccc4C3)cnn2-c2ccccc2)CC1,inactive: -11.4%
20,Cc1ccc(N2CC(NC(=O)c3ccc(S(=O)(=O)N4CCCC4)cc3)CC2=O)cc1 (stereo unspecified),inactive: -16.9%
21,COc1ccc(-c2c(C)c3cc(OC(=O)N4CCOCC4)ccc3oc2=O)cc1,inactive: -19.8%
22,CCOc1ccccc1NC(=O)Cn1c(=O)n(CCCC(=O)NCCc2ccc(C)cc2)c(=O)c2ccccc21,inactive: -12%
23,O=C(Nc1ccc2c(c1)CCCN2C(=O)c1cccs1)c1c(F)cccc1F,inactive: -37.4%

row,SMILES,"activity change, positive = activation"
1,C[C@H](CCC(=O)O)[C@H]1CC[C@H]2[C@@H]3C(=O)C[C@@H]4CC(=O)CC[C@]4(C)[C@H]3CC(=O)[C@]12C,inactive: -5.26%
2,O=C(Cn1cc(SCc2ccccc2)c2ccccc21)N1CCCCC1,inactive: 17.6%
3,COc1ccc(-c2nc(C)c(CCNC(=O)C(=O)Nc3c(C)cccc3C)s2)cc1OC,inactive: 1.08%
4,CCc1ccc(CNC(=O)CN(c2ccc(C)cc2)S(=O)(=O)N(C)C)cc1,inactive: -29.3%
5,COc1ccc(OC)c(CCNC(=O)C2CCN(c3ncnc4c3nc3n4CCCCC3)CC2)c1,inactive: -8.33%
6,CSc1ccc(CNC(=O)C2CCN(c3nnc(-n4cccc4CNc4ccc(C)cc4)s3)CC2)cc1,inactive: -36.2%
7,N#Cc1c(-n2ncnc2-c2ccc(Br)cc2)sc2c1CCCCC2,inactive: -17.2%
8,Cc1cc(C)cc(NC(=O)CCCN2C(=O)COc3ccc(C)cc32)c1,inactive: -23.5%
9,Nc1cc(=O)nc(SCC(=O)Nc2ccc(F)cc2)n1-c1ccccc1Cl,"inactive: -4.38% [at 11.5 µM, percent change from vehicle, -100% = no light]"
10,COc1ccc(C)cc1NC(=O)C1CCN(S(=O)(=O)c2ccc3[nH]c4c(c3c2)CCCCC4)CC1,inactive: -8.36%
11,O=C(COc1ccc([N+](=O)[O-])cc1)NCC1(N2CCOCC2)CCCCC1,inactive: -12%
12,Oc1c(C(c2ccccc2F)N2CCCCC2)sc2nc(-c3ccco3)nn12 (stereo unspecified),inactive: -7.37%
13,CC(=O)c1cccc(NC(=O)CSc2nc(=O)n(Cc3cccnc3)c3c2CCC3)c1,inactive: -3.15%
14,Cc1ccc(NC(=O)c2cn3c4c(ccc(Cl)c4c2=O)OC(C)C3)c(C)c1 (stereo unspecified),inactive: -7.04%
15,CC(C)CC(=O)Nc1ccc(S(=O)(=O)Nc2cc3c(cc2N2CCOCC2)n(C)c(=O)c(=O)n3C)cc1,inactive: -16.1%
16,O=C(CCc1cn(Cc2ccccc2Cl)c2ccccc12)NC1CCCCC1,inactive: -25.6%
17,Cc1c(C(=O)N2CCC(C)CC2)c(S(=O)(=O)NCc2ccc(Br)cc2)c(C)n1C,inactive: -11.9%
18,CC(C)c1ccc(NC(=O)C2CCN(c3nc(-c4ccc(C(C)C)cc4)no3)CC2)cc1,inactive: -93.7%
19,CCCCc1nc2ccccc2n2c(-c3ccc(OC)cc3)c3c(=O)n(C)c(=O)n(C)c3c12,inactive: -2.61%
20,Cc1ccccc1Nc1c(-c2ccc(Cl)s2)nc2c(C)cccn12,inactive: 29.1%
21,Cc1nc2sccn2c(=O)c1CCN1CCC(=C(c2ccc(F)cc2)c2ccc(F)cc2)CC1,inactive: -10.9%
22,COc1ccc(-n2ncc(C(=O)N3CCN(c4ncccn4)CC3)c2C2CCN(C(=O)OC(C)(C)C)CC2)cc1,inactive: 1.71%
23,Cc1ccc(C)c(NC(=O)CCc2nc3cccnc3n2Cc2cccs2)c1,inactive: -18.1%

row,SMILES,"activity change, positive = activation"
1,CCN(CC)C(=O)CSc1nc(-c2ccccc2)cc(-c2ccc(OC)cc2)c1C#N,inactive: -3.86%
2,COc1cccc(NC(=O)Cn2c(=O)n(-c3ccccc3)c(=O)c3c4c(sc32)CCCC4)c1,inactive: -5.29%
3,Cc1ccccc1-c1ccnc2c(-c3ccc(F)cc3)c(C)nn12,inactive: -40.7%
4,Cc1ccc(-c2cc(N)n(Cc3cccc(Cl)c3)n2)cc1,inactive: -16.4%
5,COc1ccccc1-c1noc(-c2ccc(NCc3ccccc3)c([N+](=O)[O-])c2)n1,inactive: -9.2%
6,Cc1cc2nc(NC(=O)c3ccc(S(=O)(=O)N4CCOCC4)cc3)sc2cc1C,inactive: -6.97%
7,COc1ccc(C)cc1NC(=O)CN(C)S(=O)(=O)c1ccc2c(c1)CCCN2C(C)=O,inactive: -5.22%
8,COCCCN1CN=C(NS(=O)(=O)c2ccc(NC(C)=O)cc2)NC1,inactive: -11.4%
9,CCOC(=O)c1sc2ccccc2c1S(=O)(=O)N1CCN(c2ccccc2F)CC1,inactive: -27.8%
10,COc1ccc(N2Cc3cccc(C(=O)Nc4ccc(C)cc4)c3C2=O)cc1,inactive: -8.55%
11,COc1cc(OC)c(NC(=O)Cn2nc(C)n3cccc3c2=O)cc1Cl,inactive: -0.53%
12,CCC(=O)N1CCc2cc(S(=O)(=O)N3CCN(c4ccccc4F)CC3)ccc21,inactive: -1.43%
13,CC1=C(c2cccc(Cl)c2)S(=O)(=O)NC1=NCc1ccccc1C,inactive: -16.9%
14,COc1ccc(C)cc1NC(=O)CN1C(=O)CSc2ccc(S(=O)(=O)N3CCCC3)cc21,inactive: -21.3%
15,CCN(CC)S(=O)(=O)c1ccc2c(c1)c(=O)c(C(=O)NCCc1ccc(OC)c(OC)c1)cn2C,inactive: 7.1%
16,COc1cccc(CN(C(=O)c2oc3ccc(Br)cc3c2C)C2CCS(=O)(=O)C2)c1 (stereo unspecified),inactive: -37.9%
17,COC(=O)CNC(c1ccccc1)c1cc(Br)ccc1NC(=O)c1ccc(Cl)cc1 (stereo unspecified),inactive: -16.4%
18,Cc1nc2ccn(Cc3ccccc3)c(=O)c2cc1C(=O)Nc1ccc(F)cc1Cl,inactive: 0.609%
19,CCC(=O)N1CCc2cc(Br)cc(S(=O)(=O)NCc3cccc(OC)c3)c21,inactive: -11.4%
20,CCOC(=O)c1ccccc1NC(=O)c1c(-c2ccccc2)noc1C,inactive: -30.3%
21,CCOC(=O)c1c(NC(=O)CSc2cn(CCNC(=O)c3ccc(OC)c(OC)c3)c3ccccc23)sc2c1CCC2,inactive: -26%
22,Cc1cn2c(=O)cc(COC(=O)c3cccc(NC(=O)COc4ccccc4)c3)nc2s1,inactive: -27.7%
23,Cc1cccc(N2CCN(c3nc4ccc(C(=O)c5ccccc5)cc4n4cnnc34)CC2C)c1 (stereo unspecified),inactive: -3.46%

row,SMILES,"activity change, positive = activation"
1,CC(C)Oc1ccc(CNC(=O)c2ccc(CS(=O)Cc3ccccc3Cl)o2)cc1 (stereo unspecified),inactive: -30.5%
2,O=C1c2c(O)ccc(O)c2C(=O)c2c(NCCNCCO)ccc(NCCNCCO)c21,inactive
3,COc1ccc(OC)c(NC(=O)c2oc3c(c2C)-c2nn(Cc4ccc(Cl)cc4)cc2CC3)c1,inactive: -11.3%
4,Cc1ccc2c(CC(=O)N3CCN(c4cccc(Cl)c4)CC3)coc2c1C,inactive: -13.8%
5,CC(=O)Nc1ccc(NC(=O)Cn2cc3c(n2)CCCCC3)cc1,inactive: 2.24%
6,Cc1cccc(OCCSc2nc3ccc(NC(=O)COc4ccccc4C)cc3s2)c1,inactive: -5.75%
7,CC(=O)N1CCc2c(sc3c2c(=O)n(Cc2ccccc2)c(=O)n3Cc2cccc(Cl)c2)C1,inactive: -48.3%
8,COc1cc(-c2noc(-c3ccc(N4CCCC4)c([N+](=O)[O-])c3)n2)cc(OC)c1OC,inactive: -6.29%
9,CCC(=O)N1CCc2cc(CNC(=O)Cc3ccc(OC)c(OC)c3)ccc21,inactive: -17.5%
10,Cc1ccccc1Cn1cnc2c(oc3ccccc32)c1=O,inactive: 12.5%
11,COc1cc(C(=O)N2CCc3c([nH]c4ccccc34)C2c2ccc(F)cc2)cc(OC)c1OC (stereo unspecified),inactive: -32.4%
12,CC1=Nc2cc(C(=O)NC3CCC(C)CC3)ccc2Sc2c(C)ccc(C)c21 (stereo unspecified),inactive: 5.71%
13,COc1ccc(NC(=O)c2ccc3c(c2)N(Cc2cccc(Cl)c2)C(=O)c2ccccc2S3(=O)=O)cc1Cl,inactive: -15.7%
14,CCN(CC)C(=O)Cn1ncc2c([nH]c3ccc(C)cc32)c1=O,inactive: -5.83%
15,CCOc1ccccc1CNC(=O)C1CCN(C(=O)N2CCOc3ccc(Cl)cc32)CC1,inactive: -28.8%
16,Cc1ccc(-n2nc(C(=O)NCc3ccc(F)cc3Cl)c3c4ccccc4n(C)c3c2=O)cc1,inactive: 8.63%
17,FC(F)(F)c1ccc2c(c1)ncc1c(-c3ccccc3)nn(-c3ccccc3)c12,inactive: -7.45%
18,Cc1nc(-c2cccc(F)c2)sc1CCNC(=O)C(=O)Nc1ccc2c(c1)OCCO2,inactive: -32.6%
19,Cc1ccccc1C(=O)Nc1ccccc1-c1nc(-c2ccccc2)no1,inactive: 11.1%
20,CCc1nc2nc(C)c(NS(=O)(=O)c3ccc(F)c(C)c3)c(=O)n2[nH]1,inactive: -12.9%
21,Cc1ccc(NC(=O)CSc2nc3ccccc3n2CC(=O)N(C)C2CCCCC2)cc1C,inactive: -12.6%
22,CC(C(=O)Nc1ccccc1)n1nnc2sc3c(c2c1=O)CCCC3 (stereo unspecified),inactive: -24.5%
